Results are given in words; binding and its absence hold for the method and conditions named. Binding seen in cells or lysates may run through a third protein. Some results given as binding are weak or reduced against the parent protein; the word gives no strength. Sequences can lack the tags named with a protein.
T1: HA-RAB23 (human) (UniProt Q9ULC3)
T1 sequence: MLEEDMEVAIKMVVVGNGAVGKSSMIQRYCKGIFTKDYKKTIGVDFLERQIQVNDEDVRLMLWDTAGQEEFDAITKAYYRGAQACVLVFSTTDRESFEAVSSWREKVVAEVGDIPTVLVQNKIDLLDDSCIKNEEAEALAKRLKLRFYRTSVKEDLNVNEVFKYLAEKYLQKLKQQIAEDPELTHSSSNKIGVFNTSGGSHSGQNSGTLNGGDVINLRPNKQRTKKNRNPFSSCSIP

Amino acid sequences for entries named in this document (tags omitted).
UniProt P63010: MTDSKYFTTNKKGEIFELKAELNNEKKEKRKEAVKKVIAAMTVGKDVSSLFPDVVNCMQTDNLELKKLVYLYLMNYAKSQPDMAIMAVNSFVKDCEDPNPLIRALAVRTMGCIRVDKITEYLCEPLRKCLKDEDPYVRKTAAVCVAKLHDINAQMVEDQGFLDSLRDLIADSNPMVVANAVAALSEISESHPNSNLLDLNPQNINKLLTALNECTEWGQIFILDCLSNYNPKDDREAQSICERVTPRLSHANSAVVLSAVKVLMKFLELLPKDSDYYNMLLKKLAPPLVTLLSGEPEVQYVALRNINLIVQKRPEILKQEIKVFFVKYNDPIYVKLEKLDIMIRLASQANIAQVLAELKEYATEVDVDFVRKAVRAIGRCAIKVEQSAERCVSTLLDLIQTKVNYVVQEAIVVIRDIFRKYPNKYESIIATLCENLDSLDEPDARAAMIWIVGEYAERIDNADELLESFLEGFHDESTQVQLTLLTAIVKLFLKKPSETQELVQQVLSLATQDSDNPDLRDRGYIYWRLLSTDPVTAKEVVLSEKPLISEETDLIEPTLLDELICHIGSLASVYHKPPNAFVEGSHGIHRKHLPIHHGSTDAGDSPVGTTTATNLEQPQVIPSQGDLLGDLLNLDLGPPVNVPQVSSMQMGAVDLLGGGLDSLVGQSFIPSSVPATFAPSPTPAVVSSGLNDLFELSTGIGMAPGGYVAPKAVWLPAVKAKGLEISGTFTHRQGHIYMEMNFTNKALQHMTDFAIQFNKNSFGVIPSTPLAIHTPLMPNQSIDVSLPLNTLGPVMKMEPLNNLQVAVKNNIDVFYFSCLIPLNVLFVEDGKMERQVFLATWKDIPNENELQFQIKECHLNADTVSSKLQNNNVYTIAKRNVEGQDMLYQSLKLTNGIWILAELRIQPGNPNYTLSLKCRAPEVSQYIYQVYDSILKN
UniProt O95782: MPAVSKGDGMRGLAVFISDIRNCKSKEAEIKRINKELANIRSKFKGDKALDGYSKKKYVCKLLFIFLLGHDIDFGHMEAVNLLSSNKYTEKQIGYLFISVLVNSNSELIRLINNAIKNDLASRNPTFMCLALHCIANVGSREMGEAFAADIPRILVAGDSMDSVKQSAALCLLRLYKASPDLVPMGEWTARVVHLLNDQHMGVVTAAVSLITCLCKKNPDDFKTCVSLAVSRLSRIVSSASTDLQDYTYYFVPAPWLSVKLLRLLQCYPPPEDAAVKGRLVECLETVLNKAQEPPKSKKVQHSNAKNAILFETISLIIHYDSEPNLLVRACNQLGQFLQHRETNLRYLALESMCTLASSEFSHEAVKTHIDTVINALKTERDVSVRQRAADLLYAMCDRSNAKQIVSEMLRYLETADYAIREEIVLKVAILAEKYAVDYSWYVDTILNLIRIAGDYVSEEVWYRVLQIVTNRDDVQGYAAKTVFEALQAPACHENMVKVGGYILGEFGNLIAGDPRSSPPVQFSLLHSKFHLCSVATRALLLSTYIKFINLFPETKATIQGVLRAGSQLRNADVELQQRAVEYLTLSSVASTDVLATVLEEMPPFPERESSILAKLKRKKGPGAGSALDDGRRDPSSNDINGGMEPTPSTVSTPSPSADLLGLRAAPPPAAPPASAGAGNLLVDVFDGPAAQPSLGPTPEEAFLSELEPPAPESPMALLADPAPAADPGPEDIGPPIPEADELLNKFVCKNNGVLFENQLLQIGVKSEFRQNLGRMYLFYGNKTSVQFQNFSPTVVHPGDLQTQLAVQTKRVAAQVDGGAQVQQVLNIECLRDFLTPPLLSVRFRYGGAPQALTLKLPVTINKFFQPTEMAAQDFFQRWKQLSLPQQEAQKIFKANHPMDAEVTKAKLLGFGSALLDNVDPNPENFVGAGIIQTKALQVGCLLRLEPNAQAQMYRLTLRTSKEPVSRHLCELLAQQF
UniProt O94973: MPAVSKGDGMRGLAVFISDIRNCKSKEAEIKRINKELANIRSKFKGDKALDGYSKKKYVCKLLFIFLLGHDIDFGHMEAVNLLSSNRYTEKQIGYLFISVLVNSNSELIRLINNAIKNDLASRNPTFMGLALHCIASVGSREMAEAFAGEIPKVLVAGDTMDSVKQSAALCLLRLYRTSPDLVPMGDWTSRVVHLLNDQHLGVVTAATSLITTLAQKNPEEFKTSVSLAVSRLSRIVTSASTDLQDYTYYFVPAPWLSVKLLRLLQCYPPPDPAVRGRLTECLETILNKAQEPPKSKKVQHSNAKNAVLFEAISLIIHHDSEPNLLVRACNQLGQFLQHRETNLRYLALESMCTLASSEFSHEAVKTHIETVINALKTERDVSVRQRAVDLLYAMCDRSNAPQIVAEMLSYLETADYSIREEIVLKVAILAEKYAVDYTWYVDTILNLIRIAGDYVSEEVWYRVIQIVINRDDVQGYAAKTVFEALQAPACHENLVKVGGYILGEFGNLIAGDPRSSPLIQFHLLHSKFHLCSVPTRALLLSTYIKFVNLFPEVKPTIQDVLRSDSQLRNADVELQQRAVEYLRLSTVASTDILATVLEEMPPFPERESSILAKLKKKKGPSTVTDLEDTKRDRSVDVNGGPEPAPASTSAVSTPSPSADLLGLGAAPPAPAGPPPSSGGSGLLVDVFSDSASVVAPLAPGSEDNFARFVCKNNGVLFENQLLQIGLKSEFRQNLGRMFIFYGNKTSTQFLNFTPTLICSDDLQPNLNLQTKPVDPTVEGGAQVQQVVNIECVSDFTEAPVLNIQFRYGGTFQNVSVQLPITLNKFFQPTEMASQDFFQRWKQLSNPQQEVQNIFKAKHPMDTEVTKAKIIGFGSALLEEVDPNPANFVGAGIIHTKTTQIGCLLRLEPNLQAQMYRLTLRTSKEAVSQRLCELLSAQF
UniProt Q99961: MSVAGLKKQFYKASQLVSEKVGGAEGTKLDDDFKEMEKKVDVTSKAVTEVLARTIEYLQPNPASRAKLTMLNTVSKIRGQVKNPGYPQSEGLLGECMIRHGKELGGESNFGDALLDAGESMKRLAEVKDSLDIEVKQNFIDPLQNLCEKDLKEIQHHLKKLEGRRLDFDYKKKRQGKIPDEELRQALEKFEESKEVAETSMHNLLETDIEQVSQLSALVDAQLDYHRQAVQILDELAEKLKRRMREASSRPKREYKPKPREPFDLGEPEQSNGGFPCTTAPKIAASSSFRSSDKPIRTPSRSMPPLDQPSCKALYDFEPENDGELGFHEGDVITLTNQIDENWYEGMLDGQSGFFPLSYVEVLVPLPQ
UniProt Q14247: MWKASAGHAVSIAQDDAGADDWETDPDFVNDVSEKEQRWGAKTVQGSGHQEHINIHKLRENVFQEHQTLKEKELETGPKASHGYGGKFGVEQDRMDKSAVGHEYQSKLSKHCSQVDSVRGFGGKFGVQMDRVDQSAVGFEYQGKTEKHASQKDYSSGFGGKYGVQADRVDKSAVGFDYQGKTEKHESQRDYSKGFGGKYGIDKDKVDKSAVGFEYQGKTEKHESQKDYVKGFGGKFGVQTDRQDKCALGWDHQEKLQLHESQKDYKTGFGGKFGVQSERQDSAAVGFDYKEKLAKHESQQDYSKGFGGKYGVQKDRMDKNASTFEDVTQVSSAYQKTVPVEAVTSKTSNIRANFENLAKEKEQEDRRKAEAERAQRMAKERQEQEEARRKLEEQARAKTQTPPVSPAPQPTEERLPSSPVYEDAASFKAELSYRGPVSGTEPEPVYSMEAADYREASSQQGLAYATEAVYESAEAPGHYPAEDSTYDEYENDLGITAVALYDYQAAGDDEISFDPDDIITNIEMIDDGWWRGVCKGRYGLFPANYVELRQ

T2: GFP-RAB23 (human) (UniProt Q9ULC3)
T2 sequence: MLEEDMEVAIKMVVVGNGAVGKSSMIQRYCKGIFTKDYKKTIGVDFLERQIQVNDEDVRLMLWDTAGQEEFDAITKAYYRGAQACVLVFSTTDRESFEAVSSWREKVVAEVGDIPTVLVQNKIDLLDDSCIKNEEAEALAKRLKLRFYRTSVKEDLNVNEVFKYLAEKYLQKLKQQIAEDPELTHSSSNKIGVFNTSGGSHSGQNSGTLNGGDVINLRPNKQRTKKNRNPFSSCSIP


Target: T1, HA-RAB23 (human)
Test: co-IP; mouse anti-HA antibody and protein G Mag sepharose on lysates of MG-63 cells transfected with HA-RAB23 pcDNA3.1 (control: IgG on un-transfected cells); cells starved 1 h, osteogenic medium with BMP2 10 min; Pierce IP lysis buffer, 4 °C overnight; western blot

Row | binding | Molecule
1 | binds | β-adaptin subunit (AP2β1) of the clathrin adaptor protein 2 (AP-2) complex (from UniProt P63010 1-937)
2 | no binding | α-adaptin 1 subunit of Adaptor protein 2 complex (from UniProt O95782 1-977)
3 | no binding | α-adaptin 2 subunit of Adaptor protein 2 complex (from UniProt O94973 1-939)

Target: T2, GFP-RAB23 (human)
Test: co-IP; GFP-Trap A agarose beads on lysates of MG-63 cells transfected with GFP-RAB23 or control GFP; cells starved 1 h, osteogenic medium with BMP2 10 min; western blot

Row | binding | Molecule
4 | binds | endophilin A2 (from UniProt Q99961 1-368)
5 | binds | cortactin (from UniProt Q14247 1-550)
6 | binds | Phosphatidylinositol-binding clathrin assembly protein (protein, UniProt Q13492 1-652) MSGQSLTDRITAAQHSVTGSAVSKTVCKATTHEIMGPKKKHLDYLIQCTNEMNVNIPQLADSLFERTTNSSWVVVFKSLITTHHLMVYGNERFIQYLASRNTLFNLSNFLDKSGLQGYDMSTFIRRYSRYLNEKAVSYRQVAFDFTKVKRGADGVMRTMNTEKLLKTVPIIQNQMDALLDFNVNSNELTNGVINAAFMLLFKDAIRLFAAYNEGIINLLEKYFDMKKNQCKEGLDIYKKFLTRMTRISEFLKVAEQVGIDRGDIPDLSQAPSSLLDALEQHLASLEGKKIKDSTAASRATTLSNAVSSLASTGLSLTKVDEREKQAALEEEQARLKALKEQRLKELAKKPHTSLTTAASPVSTSAGGIMTAPAIDIFSTPSSSNSTSKLPNDLLDLQQPTFHPSVHPMSTASQVASTWGDPFSATVDAVDDAIPSLNPFLTKSSGDVHLSISSDVSTFTTRTPTHEMFVGFTPSPVAQPHPSAGLNVDFESVFGNKSTNVIVDSGGFDELGGLLKPTVASQNQNLPVAKLPPSKLVSDDLDSSLANLVGNLGIGNGTTKNDVNWSQPGEKKLTGGSNWQPKVAPTTAWNAATMAPPVMAYPATTPTGMIGYGIPPQMGSVPVMTQPTLIYSQPVMRPPNPFGPVSGAQIQFM

Reference: article PMC12014981
